# Laboratory results from PubChem BioAssay AID504333 (National Center for Advancing Translational Sciences (NCATS), 2011).
# Values joined by “and” are separate entries in the source; they are usually repeats but may differ in a detail not shown here. Equal values may be shown once. In all, about 360,000 compounds went through this assay and about 16,000 (4.4%) were called active. Inconclusive means that the source gave no clear call. Such entries were picked first, then a sample of the others. The call rests on the fitted dose curve; in most records, active means well fitted inhibition curve with a large enough effect; inconclusive means small, poorly fitted or top-dose-only effect; inactive means no such curve, though single readings can be large or run the other way. Potencies beside an inconclusive call are fits to weak or partial responses and may not hold up.
# Biological target: Bromodomain adjacent to zinc finger domain protein 2B (Homo sapiens) (UniProt Q9UIF8)
# Assay: qHTS Assay for Inhibitors of BAZ2B; further: nearly all actives have a fitted effect of over 60% in size
# Conditions: AlphaScreen BAZ2B-H3K14Ac peptide displacement; activity change, negative = inhibition: at 114 µM (top of the series) unless noted
# In short: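 Inhibition is scored as reduced AlphaScreen emission. The BAZ2B/b-H3(5-23)K14Ac complex (50 nM each) in PBS pH 7.4, 0.01% Tween-20 meets compound (up to 110 uM) for 30 min at RT before bead addition.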
# On the % scale 0 is the no-effect control and ±100 the full control effect; potency means the concentration at half of the fitted maximal effect; tags describe the fitted curve by direction and shape.
# Sequence of UniProt Q9UIF8 (Q9UIF8 whole entry, looked up, the tested form may be a part): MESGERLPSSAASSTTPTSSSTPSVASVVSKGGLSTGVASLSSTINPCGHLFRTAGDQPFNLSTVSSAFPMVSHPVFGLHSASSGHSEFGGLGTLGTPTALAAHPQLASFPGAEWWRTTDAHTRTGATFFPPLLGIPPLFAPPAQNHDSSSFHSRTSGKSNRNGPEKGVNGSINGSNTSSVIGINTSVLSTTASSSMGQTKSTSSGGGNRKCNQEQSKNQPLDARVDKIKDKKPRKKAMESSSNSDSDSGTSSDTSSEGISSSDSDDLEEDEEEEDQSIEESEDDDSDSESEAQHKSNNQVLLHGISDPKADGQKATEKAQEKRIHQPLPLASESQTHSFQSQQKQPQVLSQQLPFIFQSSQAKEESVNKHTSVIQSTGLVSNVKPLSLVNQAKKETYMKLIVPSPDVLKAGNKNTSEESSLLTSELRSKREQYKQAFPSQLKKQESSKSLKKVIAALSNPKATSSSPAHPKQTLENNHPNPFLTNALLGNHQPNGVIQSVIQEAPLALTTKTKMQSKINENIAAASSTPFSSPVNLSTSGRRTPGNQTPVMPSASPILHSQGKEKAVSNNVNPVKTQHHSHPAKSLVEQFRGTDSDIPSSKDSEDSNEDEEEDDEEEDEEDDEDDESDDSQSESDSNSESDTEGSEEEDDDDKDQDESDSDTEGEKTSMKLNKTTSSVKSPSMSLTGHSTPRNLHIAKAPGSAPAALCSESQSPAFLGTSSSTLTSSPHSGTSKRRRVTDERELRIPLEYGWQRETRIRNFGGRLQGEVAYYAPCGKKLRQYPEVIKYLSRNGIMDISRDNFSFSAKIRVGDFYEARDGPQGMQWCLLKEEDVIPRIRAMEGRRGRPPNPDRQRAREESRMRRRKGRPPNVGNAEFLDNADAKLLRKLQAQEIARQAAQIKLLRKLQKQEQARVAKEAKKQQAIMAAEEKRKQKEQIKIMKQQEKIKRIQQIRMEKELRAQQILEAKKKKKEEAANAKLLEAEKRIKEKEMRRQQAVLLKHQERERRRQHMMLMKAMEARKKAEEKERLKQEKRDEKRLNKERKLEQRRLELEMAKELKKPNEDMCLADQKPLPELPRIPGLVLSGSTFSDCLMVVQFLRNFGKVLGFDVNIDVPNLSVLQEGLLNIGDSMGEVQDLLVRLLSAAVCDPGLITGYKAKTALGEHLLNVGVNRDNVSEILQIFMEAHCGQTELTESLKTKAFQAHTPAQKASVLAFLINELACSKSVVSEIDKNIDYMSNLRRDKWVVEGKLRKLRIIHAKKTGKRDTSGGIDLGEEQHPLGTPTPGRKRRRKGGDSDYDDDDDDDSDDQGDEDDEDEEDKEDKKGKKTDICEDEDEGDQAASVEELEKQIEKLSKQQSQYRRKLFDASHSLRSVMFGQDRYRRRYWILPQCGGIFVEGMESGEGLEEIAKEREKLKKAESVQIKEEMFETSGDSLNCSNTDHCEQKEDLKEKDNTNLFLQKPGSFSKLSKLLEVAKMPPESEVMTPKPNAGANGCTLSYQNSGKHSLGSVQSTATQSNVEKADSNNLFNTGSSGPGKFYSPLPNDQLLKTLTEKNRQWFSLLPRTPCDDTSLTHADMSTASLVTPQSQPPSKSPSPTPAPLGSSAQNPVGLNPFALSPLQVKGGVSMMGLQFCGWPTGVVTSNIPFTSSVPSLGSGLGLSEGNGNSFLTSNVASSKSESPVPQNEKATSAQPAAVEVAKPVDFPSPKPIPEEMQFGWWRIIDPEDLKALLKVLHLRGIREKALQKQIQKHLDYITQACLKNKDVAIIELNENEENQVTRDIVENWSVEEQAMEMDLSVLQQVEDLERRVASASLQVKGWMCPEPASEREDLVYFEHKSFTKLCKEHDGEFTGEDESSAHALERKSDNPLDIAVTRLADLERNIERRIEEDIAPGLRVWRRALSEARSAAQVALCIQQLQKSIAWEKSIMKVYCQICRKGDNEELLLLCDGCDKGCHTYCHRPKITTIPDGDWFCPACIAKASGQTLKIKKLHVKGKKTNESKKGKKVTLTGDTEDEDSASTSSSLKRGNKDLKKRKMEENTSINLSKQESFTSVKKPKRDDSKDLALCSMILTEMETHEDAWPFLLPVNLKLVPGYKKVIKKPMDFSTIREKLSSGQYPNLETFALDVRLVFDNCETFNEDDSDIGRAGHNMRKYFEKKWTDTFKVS
Compound,Potency,"activity change, negative = inhibition"
CCOC(=O)c1ccc2c(c1)n(CC)c(/C=C/N(C)c1ccccc1)[n+]2CC,"inconclusive: 89.1 µM [inhibitor, single point]",
COc1ccc(Nc2nc(NCc3ccco3)nc(N)c2[N+](=O)[O-])cc1,,inactive: -2.02%
COc1cc(C(=S)N2CCOCC2)cc(OC)c1OC(=O)Cc1ccc(F)cc1,"inconclusive: 89.1 µM [inhibitor, single point]",
O=C(O)COc1ccccc1/C=N/NC(=O)CSc1nc2ccccc2n1Cc1ccccc1Cl,active: 70.8 µM,
O=C(O)c1c[nH]c2c(C(F)(F)F)cccc2c1=O,"inconclusive: 79.4 µM [inhibitor, single point]",
Cc1coc2c(C)c3oc(=O)c(CCC(=O)NCCCN4CCOCC4)c(C)c3cc12,"inconclusive: 89.1 µM [inhibitor, single point]",
CC(C)(C)C(=O)CC1(O)C(=O)N(Cc2ccccc2)c2ccccc21 (stereo unspecified),"inconclusive: 7.08 µM [inhibitor, single point]",
Cc1cccc(N2CCN(C(=S)c3ccc([N+](=O)[O-])cc3)CC2)c1,active: 11.2 µM,
Cc1c(CC(=O)NCC(=O)NCC(=O)O)c(=O)oc2c(C)c3oc4c(c3cc12)CCCC4,"inconclusive: 79.4 µM [inhibitor, single point]",
COC(=O)CCCC1=CC2=CC(=O)C(C)(OC(=O)c3cccs3)C(=O)C2=CN1Cc1ccco1 (stereo unspecified),"inconclusive: 79.4 µM [inhibitor, single point]",
COC(=O)CN1C(=O)S/C(=C/c2ccc(N3CCCCC3)o2)C1=O,active: 44.7 µM,
COc1ccc(C(=O)c2cn(Cc3ccccc3F)c3ccc(F)cc3c2=O)cc1,active: 79.4 µM,
COc1ccc(OC)c(C2C=C(C34CC5CC(CC(C5)C3)C4)NC(=S)N2)c1 (stereo unspecified),active: 31.6 µM,
COC(=O)c1cc(S(=O)(=O)NCc2cc(OC)c(OC)c(OC)c2)cn1C,,inactive: -6.87% [at 57.1 µM]
CCN1C(=NCC(C)C)N[C@@H](c2cccc(F)c2)C(C(=O)OC)=C1C,"inconclusive: 100 µM [inhibitor, single point] and inconclusive: 89.1 µM [inhibitor, single point]",
COc1ccc(CNC(=O)CN(C)c2nn3c(=O)cc(C)nc3s2)cc1,,inactive: 3.57%
O=C(Cc1ccc(F)cc1)N/N=C/c1ccccn1,"inconclusive: 89.1 µM [inhibitor, single point]",
CCSc1nnc([C@H](Cc2ccccc2)NC(=O)OC(C)(C)C)o1,,inactive: 3.79%
N#CC1=C(N)OC2=C(CCC/C2=C/c2ccoc2)C1c1ccoc1 (stereo unspecified),"inconclusive: 79.4 µM [inhibitor, single point]",
C=C(NC(C)=O)c1c(F)cccc1F,,inactive: 4.32%
COc1ccc(CCNC(=O)CSc2nnc(-c3ccc(C)cc3)c(-c3ccc(C)cc3)n2)cc1OC,,inactive: -9.94%
c1ccc(C2c3[nH]c4ccccc4c3CCN2Cc2cccn2-c2ccccn2)nc1 (stereo unspecified),active: 20 µM,
Cc1ccc2c(c1)c1c(n2CC(O)CNC2CCCCC2)CCCC1 (stereo unspecified),active: 50.1 µM,

Compound,Potency,"activity change, negative = inhibition"
COCCCNS(=O)(=O)c1ccc2[nH]c3c(c2c1)CCCCC3,"inconclusive: 50.1 µM [inhibitor, partial curve]",
CCOc1ccc(NC2=C(Cl)C(=O)N(Cc3ccccc3)C2=O)cc1,"inconclusive: 8.91 µM [inhibitor, partial curve, poor fit]",
Cc1ccc(C(O)P(=O)(OCc2ccccc2)c2ccc(N(C)C)cc2)cc1 (stereo unspecified),"inconclusive: 70.8 µM [inhibitor, single point]",
Cc1cccc(-n2c(-c3csc(C)c3)n[nH]c2=S)c1,,inactive: -33.1%
O=C1NN(c2ccc(Cl)c(Cl)c2)C(=O)/C1=C/c1ccc(-c2ccccc2C(=O)O)o1,active: 39.8 µM,
CCOC(=O)c1sc(NC(=O)COC(=O)CNC(=O)C2CCCCC2)c(C(=O)OCC)c1C,,inactive: -1.72%
CCC1C(=O)CC(c2ccco2)NC1c1ccco1 (stereo unspecified),,inactive: 8.52%
Cc1nn(CCCC(=O)NCc2ccccc2)c(=O)c2c1sc1ccccc12,"inconclusive: 79.4 µM [inhibitor, single point]",
CC1=C(C(=O)Nc2ccccc2F)C(c2cccs2)C2=C(CCCC2=O)N1 (stereo unspecified),,inactive: -13.5%
Cc1nn(-c2ccccc2)c2nc(N)c(C#N)c(-c3ccc(O)c(O)c3)c12,"inconclusive: 70.8 µM [inhibitor, single point]",
COc1ccc(CNC(=O)c2oc3c(c2C)-c2nn(Cc4ccccc4Cl)cc2CC3)cc1,"inconclusive: 89.1 µM [inhibitor, single point]",
COc1cc(OC)c(NC(=O)N2CCOc3ccc(C)cc32)cc1Cl,,inactive: -0.524%
CC1CC2(CCCC2)Nc2ccc(F)cc21 (stereo unspecified),"inconclusive: 50.1 µM [inhibitor, partial curve]",
CCN(CC)c1ccc(/C=N/Nc2ccc(C)cc2)c(O)c1,active: 44.7 µM,
COc1ccc(S(=O)(=O)Nc2c(C(=O)O)[nH]c3ccccc23)c(OC)c1,"inconclusive: 89.1 µM [inhibitor, single point]",
COc1ccc(/C(O)=C2/C(=O)C(=O)N(Cc3ccco3)C2c2cccs2)cc1 (stereo unspecified),"inconclusive: 89.1 µM [inhibitor, single point]",
CCN1C(=O)/C(=C\c2cccs2)C(C(=O)OC)=C1C,active: 50.1 µM,
CSCCC1NC(=O)N(CC(=O)N2N=C(c3ccc(Cl)cc3)CC2c2ccco2)C1=O (stereo unspecified),"inconclusive: 63.1 µM [inhibitor, partial curve, poor fit]",
CC1(c2nnc(Cc3ccccc3)o2)CC(c2ccccc2[N+](=O)[O-])=NO1 (stereo unspecified),"inconclusive: 89.1 µM [inhibitor, single point]",
Cc1ccc(C(=O)O)cc1-c1ccc(/C=C2\SC(=O)N(CC(=O)Nc3ccccc3)C2=O)o1,active: 22.4 µM,
S=C(NC1CC1)SCc1ccco1,"inconclusive: 89.1 µM [inhibitor, single point]",
CC(Sc1nc(-c2ccccc2)c(C#N)c(=O)[nH]1)C(=O)Nc1ccc(F)cc1 (stereo unspecified),,inactive: -14.3%
COc1ccc(Cl)cc1N(CC(=O)Nc1ccccc1C(=O)NCc1ccco1)S(C)(=O)=O,"inconclusive: 89.1 µM [inhibitor, single point]",
